For one assay, the system named is Calu-3. In words: drug sensitivity score (DSS) for viability; higher = more toxic; extreme values may be limits of the assay. Conditions: 72 h.
Another assay deals with Vero E6. Described as above. The settings on record: 72 h.
The subject of assay [1] is HepG2. Described as above. The settings on record: 72 h.
The next assay deals with Caco-2. The assay is described as above. Conditions: 72 h.
For another assay, the system named is U2OS. Described as above. Conditions: 72 h.
The test system of assay [2] is HepG2. In words: cell viability relative to DMSO; higher = less toxic. The settings on record: 72 h; 100 nM.

A word on the cell viability: it is a read-out of living cells in per cent, often relative to untreated cells. In the case of `CN1C2CCC1CC(OC(=O)C(O)c1ccccc1)C2` (stereo unspecified) [Homatropine Bromide], the drug sensitivity score in the assay with Calu-3, in the assay on Vero E6, with HepG2 [1], with Caco-2 and with U2OS was 0 throughout. The cell viability in the assay on HepG2 [2] is 86.9%.

The values above are taken from the supplement of paper PMC13380429.
